{
  "source": "paper PMC4336329",
  "about": "(PLoS ONE, 2015)",
  "note": "The campaign covered roughly 310,000 compounds. About 2,200 (0.71%) showed an effect of 50% or more. Effects have a minus sign here. The list shows a part of the results.",
  "data": [
    {"biological_target": "human ether-à-go-go-related gene (hERG) potassium channel (human, UniProt Q12809)", "sequence (Q12809 whole entry, looked up)": "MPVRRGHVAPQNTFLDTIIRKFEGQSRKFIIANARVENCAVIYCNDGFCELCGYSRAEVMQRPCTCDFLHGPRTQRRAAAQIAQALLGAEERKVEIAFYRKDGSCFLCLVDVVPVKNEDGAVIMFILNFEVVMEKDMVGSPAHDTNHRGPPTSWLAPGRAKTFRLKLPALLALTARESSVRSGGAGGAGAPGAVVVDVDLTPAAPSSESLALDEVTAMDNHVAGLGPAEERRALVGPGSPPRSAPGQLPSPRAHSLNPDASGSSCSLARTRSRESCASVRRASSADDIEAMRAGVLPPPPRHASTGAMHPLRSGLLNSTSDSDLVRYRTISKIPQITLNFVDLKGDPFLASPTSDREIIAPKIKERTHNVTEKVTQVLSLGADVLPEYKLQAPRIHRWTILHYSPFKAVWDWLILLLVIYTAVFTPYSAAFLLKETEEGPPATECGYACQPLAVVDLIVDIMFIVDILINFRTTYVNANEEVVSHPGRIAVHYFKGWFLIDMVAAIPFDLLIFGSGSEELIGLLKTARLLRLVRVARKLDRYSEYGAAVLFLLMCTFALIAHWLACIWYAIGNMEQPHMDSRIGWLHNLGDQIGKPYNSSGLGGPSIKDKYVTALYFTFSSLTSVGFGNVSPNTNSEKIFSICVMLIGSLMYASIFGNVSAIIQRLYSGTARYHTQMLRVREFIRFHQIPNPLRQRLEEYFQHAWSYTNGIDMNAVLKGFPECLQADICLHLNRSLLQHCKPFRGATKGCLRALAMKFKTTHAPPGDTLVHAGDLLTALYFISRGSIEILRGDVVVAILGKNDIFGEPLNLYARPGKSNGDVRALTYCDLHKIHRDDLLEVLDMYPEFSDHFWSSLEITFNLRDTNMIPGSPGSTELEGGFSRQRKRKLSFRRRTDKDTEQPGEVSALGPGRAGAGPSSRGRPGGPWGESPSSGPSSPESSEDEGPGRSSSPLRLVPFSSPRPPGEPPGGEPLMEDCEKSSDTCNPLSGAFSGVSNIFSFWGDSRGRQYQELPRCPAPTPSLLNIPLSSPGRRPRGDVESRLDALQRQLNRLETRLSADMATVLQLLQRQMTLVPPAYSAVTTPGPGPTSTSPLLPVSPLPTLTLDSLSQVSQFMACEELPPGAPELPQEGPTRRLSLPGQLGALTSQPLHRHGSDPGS", "assay": "primary screen, population patch clamp on CHO cells stably expressing hERG", "units": {"hERG current change (%, negative = inhibition) at 1uM": "%"}, "values": [
      {"smiles": "O=C(NC(Cc1c[nH]c2ccccc12)c1nnc2n1CCCCC2)c1cccs1", "note": "(stereo not drawn)", "hERG current change (%, negative = inhibition) at 1uM": 5.3},
      {"smiles": "CSc1ccc(/C=C(/NC(=O)c2ccccc2)C(=O)NCCN2CCOCC2)cc1", "hERG current change (%, negative = inhibition) at 1uM": -10.3},
      {"smiles": "CC(=O)N1c2ccccc2C(CBr)=CC1(C)C", "hERG current change (%, negative = inhibition) at 1uM": 5.69},
      {"smiles": "COc1ccc(NC(=O)CN(C)CC(=O)Nc2ccccc2SC)cc1Cl", "hERG current change (%, negative = inhibition) at 1uM": -1.3},
      {"smiles": "O=C(NCc1ccccc1)c1noc2c1CCCC2", "hERG current change (%, negative = inhibition) at 1uM": -3.07},
      {"smiles": "O=CN1N=C(c2ccccc2)CC1c1ccccc1[N+](=O)[O-]", "note": "(stereo not drawn)", "hERG current change (%, negative = inhibition) at 1uM": 12.7},
      {"smiles": "Cc1ccc(C)c(NC(=O)c2ccccc2C(=O)c2ccccc2)c1", "hERG current change (%, negative = inhibition) at 1uM": 19.8},
      {"smiles": "Cc1cc2ncn(C3CC(=O)N(Cc4ccccc4)C3=O)c2cc1C", "note": "(stereo not drawn)", "hERG current change (%, negative = inhibition) at 1uM": 10.1},
      {"smiles": "Cc1nc2ccc(Cl)cn2c1P(=S)(N1CCOCC1)N1CCOCC1", "hERG current change (%, negative = inhibition) at 1uM": 2.37},
      {"smiles": "COc1cccc(NC(=O)COC(=O)c2cc(=O)c3ccccc3o2)c1", "hERG current change (%, negative = inhibition) at 1uM": 10.9},
      {"smiles": "COc1ccccc1N1CCN(CCCCNC(=O)c2ccc3ccccc3c2)CC1.Cl", "hERG current change (%, negative = inhibition) at 1uM": -75.8},
      {"smiles": "CN1CCN(CC(=O)Nc2ccc(OCc3ccccc3)cc2)CC1.Cl", "hERG current change (%, negative = inhibition) at 1uM": 9.44},
      {"smiles": "CC(=O)Cc1nsc(NC(=O)c2ccc(Br)o2)n1", "hERG current change (%, negative = inhibition) at 1uM": 12.4},
      {"smiles": "C=CCn1c(O)c(C(CC)=Nc2ccccc2NC(C)=O)c(=O)[nH]c1=O", "hERG current change (%, negative = inhibition) at 1uM": -4.37},
      {"smiles": "O=C(Nc1cc(C(=O)N2CCN(c3ccccc3O)CC2)ccc1Cl)c1cccs1", "hERG current change (%, negative = inhibition) at 1uM": -18.5},
      {"smiles": "CC(C)NC(=O)c1ccc2c(c1)N(CC(=O)N1CCCC1)C(=O)C(C)(C)O2", "hERG current change (%, negative = inhibition) at 1uM": 5.9},
      {"smiles": "Cc1ccc(NC(=O)CSc2nnc(-c3ccco3)o2)c(C)c1", "hERG current change (%, negative = inhibition) at 1uM": 17.5},
      {"smiles": "CCC(=O)NC(C)c1cc(Cl)c2cccnc2c1O", "note": "(stereo not drawn)", "hERG current change (%, negative = inhibition) at 1uM": 14.8},
      {"smiles": "CCCCCCCCNC(=O)c1cnsn1", "hERG current change (%, negative = inhibition) at 1uM": -1.95},
      {"smiles": "CCCCC(=O)NNC(=S)NC(=O)C(c1ccccc1)c1ccccc1", "hERG current change (%, negative = inhibition) at 1uM": 12.3},
      {"smiles": "O=C1CC(/C=C/c2ccc([N+](=O)[O-])cc2)=Nc2ccccc2N1", "hERG current change (%, negative = inhibition) at 1uM": -1.54},
      {"smiles": "O=c1c2c3c(sc2nc(NCCO)n1CCc1ccccc1)CCCCC3", "hERG current change (%, negative = inhibition) at 1uM": 7.46},
      {"smiles": "CC(=O)C1=C(C)NC(SCC(=O)c2cc(Cl)ccc2Cl)=C(C#N)C1c1ccco1", "note": "(stereo not drawn)", "hERG current change (%, negative = inhibition) at 1uM": 11.1},
      {"smiles": "CCOc1ccccc1N(CC(=O)O)S(=O)(=O)c1ccccc1", "hERG current change (%, negative = inhibition) at 1uM": 30.2},
      {"smiles": "COc1ccc(Cl)cc1NC(=O)C1CCCN(S(C)(=O)=O)C1", "note": "(stereo not drawn)", "hERG current change (%, negative = inhibition) at 1uM": 11.7},
      {"smiles": "CC1=C(C(=O)Nc2ccc(Cl)cc2)C(c2ccco2)NC(=O)N1", "note": "(stereo not drawn)", "hERG current change (%, negative = inhibition) at 1uM": 14.4},
      {"smiles": "COc1ccc(C(=O)NCC(=O)N/N=C(\\C)Cc2ccccc2)cc1", "hERG current change (%, negative = inhibition) at 1uM": 16.1},
      {"smiles": "COc1cccc(C(=O)NNC(=O)c2ccccc2-n2cccc2)c1", "hERG current change (%, negative = inhibition) at 1uM": 22.8},
      {"smiles": "COc1ccc(N2C(=O)C(=O)/C(=C(/O)c3ccc(C)cc3)C2c2cccnc2)cc1", "note": "(stereo not drawn)", "hERG current change (%, negative = inhibition) at 1uM": -3.2},
      {"smiles": "CCc1ccc2c(c1)C(=O)C(=O)N2CC(=O)Nc1ccc(NC(=O)c2ccccn2)cc1", "hERG current change (%, negative = inhibition) at 1uM": 11.5},
      {"smiles": "Oc1oc(-c2ccc(Br)cc2)nc1/C=N/c1ccccn1", "hERG current change (%, negative = inhibition) at 1uM": 4.27},
      {"smiles": "CCn1c(SCC(=O)Nc2nccs2)nnc1-c1ccc(C)cc1", "hERG current change (%, negative = inhibition) at 1uM": -4.92},
      {"smiles": "O=c1cc(-c2ccc(O)cc2)oc2ccc(O)cc12", "hERG current change (%, negative = inhibition) at 1uM": 5.62},
      {"smiles": "CCC1CCCCN1C(=O)CCCc1ccccc1", "note": "(stereo not drawn)", "hERG current change (%, negative = inhibition) at 1uM": 8.6},
      {"smiles": "CCOC(=O)CSc1nc(Nc2ccc3c(c2)OCO3)c2ccccc2n1", "hERG current change (%, negative = inhibition) at 1uM": -1.81},
      {"smiles": "Cc1ccc(NC(=O)O/N=C2\\CCCCC2c2ccc([N+](=O)[O-])cc2[N+](=O)[O-])cc1", "note": "(stereo not drawn)", "hERG current change (%, negative = inhibition) at 1uM": -9.22},
      {"smiles": "COc1ccc(S(=O)(=O)NCC(=O)N(CC(=O)NCC2CCCO2)Cc2ccccc2)cc1", "note": "(stereo not drawn)", "hERG current change (%, negative = inhibition) at 1uM": 10.4},
      {"smiles": "COCCn1c(-c2ccc(C)cc2)nc2oc3cc(OC)ccc3c(=O)c2c1=O", "hERG current change (%, negative = inhibition) at 1uM": 15},
      {"smiles": "CCOC(=O)C1=C(NC#N)OC(C)=C(C)C1c1ccc(O)cc1", "note": "(stereo not drawn)", "hERG current change (%, negative = inhibition) at 1uM": 9.41},
      {"smiles": "CN1CCN(C(=O)COCc2cc(-c3ccc4c(c3)OCO4)on2)CC1", "hERG current change (%, negative = inhibition) at 1uM": 13},
      {"smiles": "COc1ccc(NC2=NC(=S)N(c3cccc(C)c3)C23CCCCC3)cc1", "hERG current change (%, negative = inhibition) at 1uM": 2.15},
      {"smiles": "CCCNc1nc2c(c(=O)n(C)c(=O)n2C)n1CCC(C)C", "hERG current change (%, negative = inhibition) at 1uM": 3.46},
      {"smiles": "CCn1cc(C(=O)O)c(=O)c2cnc(N3CCNCC3)nc21", "hERG current change (%, negative = inhibition) at 1uM": -47.7},
      {"smiles": "O=C(CCn1c(=S)[nH]c2cc3c(cc2c1=O)OCO3)NCc1ccccc1Cl", "hERG current change (%, negative = inhibition) at 1uM": 14.3},
      {"smiles": "Cc1nc(C(=O)Nc2ccc(F)cc2)nn1-c1ccc([N+](=O)[O-])cc1", "hERG current change (%, negative = inhibition) at 1uM": -33.8}
    ]}
  ]
}
